Here are results for 110 sequences from paper PMC6212790.

Some of the results follow. At the low end of the ranking, values are background and their order means little.

The target of the assay is T1, GST-Rok-C97-191 (UniProt O34857).
T1 sequence: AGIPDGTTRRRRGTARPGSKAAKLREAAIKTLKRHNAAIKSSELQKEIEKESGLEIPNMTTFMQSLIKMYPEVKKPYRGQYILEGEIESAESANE
As to the kind of experiment: protein binding microarray.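 Also: rank score from −0.5 (least bound) to 0.5 (best bound).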 Particulars: Rok is a gene silencer of Bacillus subtilis; high values mean tight binding; most listed sequences are background and not binding sites; double strand, one strand shown.
Regarding AGAGAAGC, the binding signal came to 0.0741 E-score.
Sequence AAGCGAAC registered a binding signal of -0.218 E-score.
Sequence CTGTTAGA came in with a binding signal of 0.0073 E-score.
The figure for ACCAGCCC is -0.172 E-score.
The sequence CAACAGGC came in with a binding signal of -0.102 E-score.
GCTGGCAA: the binding signal was -0.071 E-score.
AAGCAGTG: the binding signal was -0.215 E-score.
Under GTGACTAA stands 0.0707 E-score; under CTGCCAAA, -0.000971 E-score; under ATGCGTCG, 0.132 E-score.
CGGGACCC registered a binding signal of -0.307 E-score.
For TCGTTAAA, the binding signal was determined as 0.197 E-score.
The figure for AGGCTGTC is -0.235 E-score; for AGCGAACC it is -0.2 E-score.
CATTATCC registered a binding signal of 0.0456 E-score.
Sequence CTGACACC came in with a binding signal of -0.29 E-score.
Regarding CGCCAACA, the binding signal was -0.132 E-score.
CTGCGAAG gave a binding signal of -0.0246 E-score.
Turning to GACATAGC, the binding signal was -0.0609 E-score.
Under GCAAGCAC stands -0.0636 E-score; under CGCATGTC, -0.072 E-score.
AGAGTACC gave a binding signal of -0.0388 E-score.
In turn, CGCTTCAG returned a binding signal of -0.148 E-score.
Under ATGCGACG stands 0.0742 E-score.
The sequence CGGACAGA registered a binding signal of 0.00926 E-score.
The figure for AGGACGCA is -0.134 E-score.
As for GCTTAACC, the binding signal is -0.121 E-score.
CAATAAGC: the binding signal was -0.0187 E-score.
Under ATCGCCCG stands -0.21 E-score; under CCGCCCGC, -0.28 E-score; under ACCTCAGA, -0.177 E-score.
Under TTTGAAAA stands -0.0186 E-score; under CCAGGGCC, -0.275 E-score; under CGCGACTC, -0.19 E-score.
Under CCAATGTC stands -0.00982 E-score; under ACTGACGC, -0.161 E-score.
ACATGCTG showed a binding signal of -0.04 E-score.
On to GTGACACA, for which the binding signal is 0.0273 E-score.
As to CGCATGCG, the binding signal was -0.379 E-score.
Turning to CTGACAAA, the binding signal was -0.0915 E-score.
ACGTTGTG returned a binding signal of -0.000385 E-score.
As for ACATGGCG, the binding signal was -0.013 E-score.
The figure for CCAAAAAG is -0.108 E-score; for CGTTCTGA it is -0.0815 E-score; for CACTTCGC it is -0.103 E-score.
As for AGTTCTAT, the binding signal was found to be 0.242 E-score.
As for AGGCGTGA, the binding signal was -0.173 E-score.
The figure for ACCTATGC is -0.0256 E-score; for GTACTGAA it is 0.0812 E-score.
For the sequence ATTCAGAG, the binding signal is -0.129 E-score.
The sequence GCCTTGAA had a binding signal of -0.174 E-score.
Under AGTTGCTA stands 0.269 E-score; under AGGGTCTG, -0.226 E-score.
In the case of CGCGGAAA, the binding signal amounted to 0.119 E-score.
The sequence AAGTTGAT showed a binding signal of -0.0272 E-score.
The figure for CCCTTAGA is -0.122 E-score.
With CCCCCAGG, the binding signal is -0.374 E-score.
In the case of GTACCTAC, the binding signal turned out to be 0.349 E-score.
With CAAATTAG, the binding signal is 0.044 E-score.
The figure for CGATTACA is -0.117 E-score; for CGGCGAGC it is -0.218 E-score.
Turning to CTAACGAA, the binding signal was found to be 0.0767 E-score.
Under AATTCAGT stands 0.0493 E-score; under CTAGGCTC, -0.179 E-score; under GTACAGAA, 0.0429 E-score.
On to AGGTGCCA, for which the binding signal was -0.101 E-score.
Under CTCAAACA stands -0.00373 E-score.
CCCGAGAC showed a binding signal of -0.261 E-score.
In the case of ATTAGCAC, the binding signal amounted to 0.0299 E-score.
Take CGCCGTAC: the binding signal is -0.135 E-score.
In turn, CCAAATGG gave a binding signal of -0.144 E-score.
GCTTTCCC: the binding signal was -0.232 E-score.
As for CCAATTTA, the binding signal is 0.177 E-score.
Sequence GCAGCCCA yielded a binding signal of -0.184 E-score.
The sequence CAAAATCG returned a binding signal of 0.0988 E-score.
AAAGTTTC registered a binding signal of 0.189 E-score.
The figure for TCGACCCA is -0.056 E-score; for ACGCTACC it is 0.216 E-score.
GGAGCACA registered a binding signal of -0.139 E-score.
Sequence ACAGTCTA had a binding signal of 0.152 E-score.
Regarding CGCCCGAC, the binding signal was -0.305 E-score.
The figure for AGCTATTC is -0.0326 E-score; for GCGGGAAC it is -0.127 E-score.
The sequence CTATAATA gave a binding signal of 0.34 E-score.
In turn, AAGATCTC yielded a binding signal of 0.0462 E-score.
The figure for GTTAGGTA is 0.106 E-score; for CGGAACCA it is -0.116 E-score.
With TAGTTAGA, the binding signal is 0.319 E-score.
The figure for AGCAGGCC is -0.353 E-score; for GGCTATTA it is 0.0955 E-score.
In the case of CCACCCGA, the binding signal was -0.304 E-score.
AACTTCCG yielded a binding signal of 0.0503 E-score.
In the case of CCTCATCC, the binding signal is -0.253 E-score.
GGAAGCCC showed a binding signal of -0.23 E-score.
The figure for GGCCGGGA is -0.259 E-score; for AAGAGGGC it is -0.165 E-score; for ATCTCCAT it is 0.18 E-score.
The figure for CGTGCCTC is -0.223 E-score.
In turn, GCGGACAC gave a binding signal of -0.271 E-score.
The sequence GTTGCCTA displayed a binding signal of 0.0227 E-score.
For the sequence TAAAATAA, the binding signal was 0.281 E-score.
GATGATGC showed a binding signal of -0.12 E-score.
ACCCGGCG displayed a binding signal of -0.0876 E-score.
CCCAAAAG showed a binding signal of -0.236 E-score.
Under ACAACCCT stands 0.0815 E-score; under AATGTGAA, 0.253 E-score.
Take AGAAGTTA: the binding signal came out at 0.194 E-score.
On to GCTGCACA, for which the binding signal is 0.00247 E-score.
In the case of AGGTTCGA, the binding signal was -0.202 E-score.
Sequence CGCCCAGC returned a binding signal of -0.358 E-score.
